For one assay, the target named is HA-epitope tagged Ric-8A (UniProt Q9NPQ8). Put plainly: co-IP; HA-Ric-8A transiently expressed in SKOV3 cells, 48 hrs; immunoprecipitated with antibodies to HA-epitope; immunoblot for endogenous Gα subunits.
For assay [1], the target named is Ric-8A, ectopically expressed in HEK293 cells (UniProt Q9NPQ8). Put plainly: co-IP; HEK293 cells transfected with Ric-8A and Gα13, treated with DMSO or 10 µM Src kinase inhibitor (SI1 or PP2) overnight; Ric-8A immunoprecipitated, immunoblot for Gα13.
Assay [2] addresses Ric-8A (Resistance to inhibitors of cholinesterase 8 homolog A), endogenous (human (endogenous in HEK293, SKOV3, HeyA8)) (UniProt Q9NPQ8). The experiment in a line: co-IP; endogenous proteins; 1 mg lysate of SKOV3 or HeyA8 cells with 1 µg normal mouse IgG, Gα13 antibody (clone 73.1) or Ric-8A antibody (clone 3G3), Protein G EZview beads 16 hrs, 4°C; immunoblot. In general terms: A western blot detects proteins with antibodies after separation by electrophoresis.

Amino acid sequences for entries named in this document (tags omitted). A change or cut given only in a name is not applied to a line headed by its entry. Chains listed by the source or under a name are the forms on record and can include a tag or linker. Residues count along the entry.
UniProt Q9NPQ8: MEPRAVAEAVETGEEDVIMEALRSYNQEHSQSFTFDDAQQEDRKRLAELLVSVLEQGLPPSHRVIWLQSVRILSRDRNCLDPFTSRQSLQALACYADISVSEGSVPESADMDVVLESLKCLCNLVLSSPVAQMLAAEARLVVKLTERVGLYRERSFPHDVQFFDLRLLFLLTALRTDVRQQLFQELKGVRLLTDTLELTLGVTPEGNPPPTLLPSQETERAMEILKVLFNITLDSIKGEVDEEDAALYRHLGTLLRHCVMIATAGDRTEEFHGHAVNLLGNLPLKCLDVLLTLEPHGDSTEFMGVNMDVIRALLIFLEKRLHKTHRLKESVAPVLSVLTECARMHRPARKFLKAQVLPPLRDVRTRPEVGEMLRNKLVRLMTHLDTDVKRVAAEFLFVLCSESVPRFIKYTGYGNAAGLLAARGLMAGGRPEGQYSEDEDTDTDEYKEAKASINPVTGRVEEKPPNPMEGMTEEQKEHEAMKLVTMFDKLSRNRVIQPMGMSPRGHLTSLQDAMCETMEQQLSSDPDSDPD
UniProt Q14344: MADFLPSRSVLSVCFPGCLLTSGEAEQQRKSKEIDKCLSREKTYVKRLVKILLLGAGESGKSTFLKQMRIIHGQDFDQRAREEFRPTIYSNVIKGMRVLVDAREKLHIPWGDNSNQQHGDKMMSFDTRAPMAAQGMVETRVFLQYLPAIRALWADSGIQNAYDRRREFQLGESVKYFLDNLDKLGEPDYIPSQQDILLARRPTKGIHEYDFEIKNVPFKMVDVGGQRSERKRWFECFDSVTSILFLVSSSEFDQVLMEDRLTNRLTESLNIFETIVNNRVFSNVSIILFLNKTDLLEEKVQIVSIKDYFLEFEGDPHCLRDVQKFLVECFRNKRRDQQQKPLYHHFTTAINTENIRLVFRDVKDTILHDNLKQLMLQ
FS-tagged Gα13 deletion construct C (aa 224–377): residues 224-377 of Q14344
FS-tagged Gα13 deletion construct D4 (aa 259–377): residues 259-377 of Q14344
FS-tagged Gα13 deletion construct D5 (aa 302–377): residues 302-377 of Q14344
FS-tagged Gα13 deletion construct D8 (302–340): residues 302-340 of Q14344
FS-tagged Gα13 deletion construct D6 (342–377): residues 342-377 of Q14344
UniProt P29992: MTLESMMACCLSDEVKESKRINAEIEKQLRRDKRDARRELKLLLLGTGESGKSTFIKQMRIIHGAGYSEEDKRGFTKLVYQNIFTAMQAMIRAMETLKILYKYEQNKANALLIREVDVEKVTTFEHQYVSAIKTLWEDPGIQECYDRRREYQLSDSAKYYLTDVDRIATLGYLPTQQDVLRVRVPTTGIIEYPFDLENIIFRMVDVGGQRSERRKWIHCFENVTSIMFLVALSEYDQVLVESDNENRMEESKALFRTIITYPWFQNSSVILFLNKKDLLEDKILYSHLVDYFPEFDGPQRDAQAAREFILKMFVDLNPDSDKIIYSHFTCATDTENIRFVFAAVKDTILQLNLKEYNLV
UniProt Q03113: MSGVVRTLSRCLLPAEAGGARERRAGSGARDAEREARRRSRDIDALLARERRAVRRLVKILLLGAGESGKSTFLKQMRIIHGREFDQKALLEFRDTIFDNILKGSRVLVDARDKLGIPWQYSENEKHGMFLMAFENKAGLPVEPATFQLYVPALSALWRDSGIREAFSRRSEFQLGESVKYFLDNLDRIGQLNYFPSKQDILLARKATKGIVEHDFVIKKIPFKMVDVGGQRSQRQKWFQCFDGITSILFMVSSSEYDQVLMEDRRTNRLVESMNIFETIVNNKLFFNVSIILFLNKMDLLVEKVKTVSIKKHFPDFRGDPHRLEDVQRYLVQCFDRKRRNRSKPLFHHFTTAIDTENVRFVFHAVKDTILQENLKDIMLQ
UniProt P04899: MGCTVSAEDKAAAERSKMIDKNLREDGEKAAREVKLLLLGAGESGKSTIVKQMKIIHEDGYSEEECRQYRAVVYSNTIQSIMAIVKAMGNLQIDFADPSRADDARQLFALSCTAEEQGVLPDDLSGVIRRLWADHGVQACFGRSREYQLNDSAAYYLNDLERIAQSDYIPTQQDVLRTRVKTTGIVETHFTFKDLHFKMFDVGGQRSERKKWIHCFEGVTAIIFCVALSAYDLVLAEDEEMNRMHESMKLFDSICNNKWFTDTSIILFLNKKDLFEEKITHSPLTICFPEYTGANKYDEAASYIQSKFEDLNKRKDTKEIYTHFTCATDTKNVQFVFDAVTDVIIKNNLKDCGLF
UniProt P50148: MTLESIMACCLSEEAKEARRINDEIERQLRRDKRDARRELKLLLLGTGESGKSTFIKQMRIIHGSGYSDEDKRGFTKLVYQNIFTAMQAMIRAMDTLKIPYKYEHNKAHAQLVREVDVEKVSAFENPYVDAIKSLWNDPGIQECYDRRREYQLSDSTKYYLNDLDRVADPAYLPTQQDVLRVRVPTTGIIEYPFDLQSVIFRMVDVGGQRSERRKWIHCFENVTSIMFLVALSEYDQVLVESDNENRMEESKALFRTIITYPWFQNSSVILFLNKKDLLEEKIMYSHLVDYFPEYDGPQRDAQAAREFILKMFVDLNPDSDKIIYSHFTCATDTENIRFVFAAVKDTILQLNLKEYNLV

In assay [3] the target is FS-tagged Gα13Q226L (constitutively active mutant of Gα13) (human) (UniProt Q14344). Put plainly: tandem affinity purification with immunoblot; lysates of vector control and Gα13QL transfectants (HEK293) taken through the second affinity purification; proteins eluted by FLAG peptide, immunoblot with Ric-8A antibodies.
For assay [4], the target named is FS-tagged Gα13 deletion construct D8 (302–340) (human) (UniProt Q14344). Put plainly: co-IP; HEK293 cells transfected with FS-tagged Gα13 constructs, 48 h; 1 mg lysate with anti-FLAG M2 EZview beads, 5 hours, 4°C; immunoblot for endogenous Ric-8A.
The target of assay [5] is FS-tagged Gα13 deletion construct C (aa 224–377) (human) (UniProt Q14344). The assay is described as above.
The target in assay [6] is FS-tagged Gα13Q226L (constitutively active mutant of Gα13) (human) (UniProt Q14344). Described as above.
Assay [7] addresses FS-tagged wild-type Gα13 (human) (UniProt Q14344). Described as above.
The target of assay [8] is FS-tagged Gα13 deletion construct D4 (aa 259–377) (human) (UniProt Q14344). Described as above.
The target of assay [9] is FS-tagged Gα13 deletion construct D5 (aa 302–377) (human) (UniProt Q14344). The assay is described as above.
In assay [10] the target is FS-tagged Gα13 deletion construct D6 (342–377) (human) (UniProt Q14344). The assay is described as above.
Assay [11] has as its target Gα13, endogenous (human (endogenous in SKOV3, HeyA8)) (UniProt Q14344). The experiment in a line: co-IP; endogenous proteins; 1 mg lysate of SKOV3 or HeyA8 cells with 1 µg normal mouse IgG, Gα13 antibody (clone 73.1) or Ric-8A antibody (clone 3G3), Protein G EZview beads 16 hrs, 4°C; immunoblot.

No constants are given. Whether binding was seen depends on the method and setting. For some of these results: Binding seen in cells or lysates may run through a third protein. Some results given as binding are weak or reduced against the parent protein; the word gives no strength.

With “Gα11, endogenous (from UniProt P29992 1-359)”, the binding entry with HA-epitope tagged Ric-8A was “binds”.

As to “Gα12, endogenous (from UniProt Q03113 1-381)”, the binding result in the assay with HA-epitope tagged Ric-8A is reported as “binds”.

“Gα13, co-expressed with Ric-8A in HEK293 cells (from UniProt Q14344 1-377)”: in assay [1], the binding result is reported as “binds”.

Consider “Gα13, endogenous (from UniProt Q14344 1-377)”, for which the binding result (with HA-epitope tagged Ric-8A; in assay [2]) was “binds” in each case.

Take “Gαi2, endogenous (from UniProt P04899 1-355)”: the binding result in the assay with HA-epitope tagged Ric-8A is “binds weakly”.

Consider “Gαq, endogenous (from UniProt P50148 1-359)”, for which the binding result with HA-epitope tagged Ric-8A is listed as “binds”.

Take “Ric-8A (Resistance to inhibitors of cholinesterase 8 homolog A), endogenous (from UniProt Q9NPQ8 1-531)”: the binding entry was “binds” in [3]; “no binding” in assay [4]; “binds” in [5]; “binds” in [6]; “binds” in assay [7]; “binds” in [8]. The binding result in assay [9], in [10] and in assay [11] was “binds” in each case.
